Test results: article PMC12977500, “Mechanistic insights into SteAB regulation of cell wall hydrolase RipA in Mycobacterium tuberculosis” (mBio, 2026)

Biological target: the molecule itself
Assay: crystal structure; apo MtSteB△TM, 11.4 mg/mL; 0.1 M CdCl2, 0.1 M Na acetate pH 4.6, 30% PEG 400; 18°C; 2 Å resolution

B1: MtSteB△TM (soluble M. tuberculosis SteB devoid of its TM domain, residues 38–314) (domain or fragment)
chain: RSEKRDLYTQIDRLTDQRDALREKLSAADNFDIQVGSRIVHDALVGKSVVIFRTPDAHDDDIAAVSKIVGQAGGAVTATVSLTQEFVEANSAEKLRSVVNSSILPAGSQLSTKLVDQGSQAGDLLGIALLSNADPAAPTVEQAQRDTVLAALRETGFITYQPRDRIGTANATVVVTGGALSTDAGNQGVSVARFAAALAPRGSGTLLAGRDGSANRPAAVAVTRADADMAAEISTVDDIDAEPGRITVILALHDLINGGHVGHYGTGHGAMSVTVSQ
notes: Homodimer in both crystal structures; also called MctB; Rv1698; not shown: His6, N-terminal, cleaved; SUMO, N-terminal, cleaved
For B1, which “stoichiometry N” value is on record?
The value was 2.
